Assay results as given in PubChem BioAssay (NCATS).
The inconclusive results got no clear call from the source; some entries with a clear call stand among them for comparison. Potencies of inconclusive entries are left out as doubtful fits. Calls of active or inactive are those of the source. The call rests on the fitted dose curve; in most records, active means well fitted cell-killing curve with a large enough effect; inconclusive means small, poorly fitted or top-dose-only effect, or effect the other way; inactive means no such curve, though single readings can be large or run the other way.

test: Viability qHTS for spleen associated tyrosine kinase inhibitor (SYKi) drug resistant MV4-11 cells (AID 1963824); details: SYKi-resistant MV4-11 viability, CellTiter-Glo, 72 h; series mostly up to 45 µM; further: nearly all actives have a fitted effect of over 35% in size
Method in brief: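 CellTiter-Glo luminescence, read 10 min after reagent addition, reports viability after a 72 hr compound exposure. Cells are an MV4-11 line made resistant to SYK inhibition, seeded at 500 per well onto compound-containing plates.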
Potency means the concentration at half of the fitted maximal effect; tags describe the fitted curve by direction and shape.

Question: With CC(=O)/C=C/C1C(C)CC(O[C@@H]2O[C@H](CO)[C@@H](O)[C@H](O)[C@H]2O)CC1(C)C (stereo not given in full) as the molecule, how does the Potency read?
Answer: Its Potency is inconclusive [cytotoxic, partial curve, poor fit].

Question: With CC1(C(=O)Nc2ccc(F)nc2)CCCN1c1nc(Nc2cc(C3CC3)[nH]n2)c2cccn2n1 (stereo not given) as the molecule, how does the Potency read?
Answer: Its Potency is active: 1.64 µM.

Question: For CN(C)CC1CCn2c(c(C3=C(c4cn(C)c5ccccc45)C(=O)NC3=O)c3ccccc32)C1 (stereo not given), which Potency is on record?
Answer: The Potency was active: 2.91 µM.

Question: For OCC(CO)N[C@H]1C[C@](O)(CO)[C@@H](O)[C@H](O)[C@H]1O, which Potency is on record?
Answer: Its Potency is “inactive”.

Question: Which Potency does the source give for C=C1OC2CC(C(=O)O)C=CC2NC1=O (stereo not given) here?
Answer: The Potency was active: 2.91 µM.

Question: With CC1=CC(=O)C2C(C)(C)CC(O)CC2(C)C1CO (stereo not given) as the molecule, how does the Potency read?
Answer: The Potency was inconclusive [cytotoxic, full curve, poor fit].

Question: With C=CC(C)(O)CC/C=C(/C)C(=O)OC1C(OC2OCC(OC3OC(CO)C(O)C(O)C3O)C(OC3OCC(O)C(OC4OC(C)C(O)C(O)C4O)C3O)C2O)COC(OC(=O)C23CCC(C)(C)CC2C2=CCC4C5(C)CCC(OC6OC(CO)C(OC7OC(CO)C(O)C(OC8OCC(O)C(O)C8O)C7O)C(O)C6O)C(C)(C)C5CCC4(C)C2(C)CC3O)C1O (stereo not given) as the molecule, how does the Potency read?
Answer: Its Potency is inconclusive [cytotoxic, single point].

Question: Which Potency does the source give for C=C(C(=O)O)C1CCC2(C)CCC(O)C(=C)C2C1 (stereo not given) here?
Answer: The Potency was “inactive”.

Question: Which Potency does the source give for CC1CCC2C(C)(C)C(O)C(O)CC2(C)C12Cc1c(O)cc(CO)c(C=O)c1O2 (stereo not given) here?
Answer: The Potency was inconclusive [cytotoxic, full curve, poor fit].

Question: Which viability, % of control does the source give for C=C1CC[C@]2(C(=O)O[C@@H]3O[C@H](CO)[C@@H](O)[C@H](O)[C@H]3O)CC[C@]3(C)C(=CCC4[C@@]5(C)C[C@H](O)[C@@H](O[C@@H]6O[C@H](C(=O)O)[C@@H](O)[C@H](O)[C@H]6O)[C@](C)(C=O)C5CC[C@]43C)C2C1 (stereo not given in full) here?
Answer: The viability, % of control was inactive: 87.9% [at 9.25 µM].
